Data on 84 variants can be found in the RNAGym collection of RNA variant scans (doi:10.1093/nar/gkz1192).

The source gives no read counts; variants with many changes may rest on few reads.

B1: CPEB3 Ribozyme (parent)
chain: UAACAGGGGGCCACAGCAGAAGCGUUCACGUCGCAGCCCCUGUCAGAUUCUGGUGAAUCUGCGAAUUCUGCUGUAUAUCUC

Variants of B1 are the subject of the data set. Nature of the data set: self-cleavage, relative activity (ratio to wild type); higher = more cleavage; in vitro, sequencing. A digest of the protocol: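 Libraries of CPEB3 self-cleaving ribozyme mutants came from rounds of error-prone PCR and carried barcodes, which DNA sequencing matched to variants. In vitro transcription used T7 RNA polymerase at 37°C for 5 hours, with a further 15 min in DNase I before EDTA stopped the reaction; the ribozymes cleaved during both steps. The RNA was reverse transcribed with template switching and sequenced on Illumina. Relative activity is the cleaved/total read fraction of a variant divided by that of the unmutated ribozyme, averaged over three batches with at least 5 reads.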
Consider A5G U26A U58G C62U, for which the self-cleavage was 0.25.

With A5U A13U A21G U49C U54C A64C, the self-cleavage came out at 0.05.

Regarding A5G U31C U48A U54G, the self-cleavage was 0.63.

Take A5U A15C A28G C62A: the self-cleavage was 0.32.

Turning to A5G U25G A35U U41A U72A, the self-cleavage amounted to 0.09.

For the variant A5G U25C U43C A56G U78C, the self-cleavage was 0.25.

For A5U A20G U72C U76C U78C, the self-cleavage amounted to 1.

As for A5G U26C U43G U49C U80A, the self-cleavage was 0.15.

A5G U26C U51C A56G: the self-cleavage stood at 0.14.

In the case of A5G U31C U69C U72A C81U, the self-cleavage was 0.21.

Regarding A5G U78A U80G, the self-cleavage came out at 1.07.

For A5U A15U U49C A77G U78C, the self-cleavage turned out to be 0.1.

As to A5U A15U A21U U31C A57G U80C, the self-cleavage turned out to be 0.24.

As to A5G U26G U31C U72C C81U, the self-cleavage was determined as 0.14.

Take A5U A20U U43C U48C G55C U72A: the self-cleavage amounted to 0.25.

Consider A5G U31A U41A U80A, for which the self-cleavage stood at 0.13.

As to A5U A20G C62U, the self-cleavage was 0.21.

For the variant A5U A18G U51A A64U A77U, the self-cleavage amounted to 0.28.

With A5U A13U A15C U26C U41C U66A C81U, the self-cleavage was found to be 0.44.

As to A5U A15G U41A A57G, the self-cleavage stood at 0.3.

On to A5U A18G A35U A45G G73A, for which the self-cleavage is 0.41.

For A5G U41C U74C, the self-cleavage is 0.46.

Take A5G U48C A57G U74A: the self-cleavage amounted to 1.35.

A5G U54A A75U: the self-cleavage was found to be 0.6.

As for A5G U60A G70C, the self-cleavage was found to be 0.31.

Turning to A5G U54A U67C U72C U74C, the self-cleavage turned out to be 0.16.

Take A5G U31A U58C: the self-cleavage was 0.4.

On to A5U A13U A21G, for which the self-cleavage worked out at 0.51.

As for A5G U26C C62U U72C U76A, the self-cleavage was determined as 0.14.

As for A5G U43C A45C A57G U69G, the self-cleavage was determined as 0.2.

Regarding A5G U60C A77U, the self-cleavage was found to be 0.28.

With A5G U43C U51A A56G, the self-cleavage was 0.33.

Consider A5G U78C U80C, for which the self-cleavage is 0.3.

On to A5G U25C C40U, for which the self-cleavage was found to be 0.4.

As for A5G U31C C39A U54C U72G, the self-cleavage was 0.09.

Take A5G U31C U41C A57G U60C: the self-cleavage was found to be 0.25.

For A5G U25C A35U U76C, the self-cleavage worked out at 0.12.

In the case of A5U A21G A45G A47G, the self-cleavage came out at 0.42.

As to A5U A18G U26C G55A U67C U78C U80C, the self-cleavage is 0.06.

A5G U25C U26A U72C: the self-cleavage was 0.61.

In the case of A5G U25C G61A A77G, the self-cleavage came to 0.12.

As for A5G U58C U80C, the self-cleavage stood at 0.16.

Turning to A5G U25C A47U U60C, the self-cleavage was determined as 0.08.

As for A5U A13G U31C G46A U58C U72C, the self-cleavage came to 0.18.

As to A5G U31C U41C U69A U72C, the self-cleavage was 0.1.

On to A5U A18G A35U C81U, for which the self-cleavage was 0.34.

For the variant A5G U25G A35U U48C A56U U74C U76C, the self-cleavage turned out to be 0.15.

On to A5G U43A U76C, for which the self-cleavage stood at 0.74.

As for A5G U26C C27A U51C U69A, the self-cleavage is 0.09.

Turning to A5G U31A A47U, the self-cleavage was determined as 0.26.

For the variant A5U A13U U31A, the self-cleavage is 0.86.

With A5U A21C U58C, the self-cleavage came to 0.15.

For A5U A15G A64G U67G, the self-cleavage turned out to be 0.66.

Take A5U A18G A28G C62U: the self-cleavage was found to be 0.1.

Regarding A5G U49C U60C U80C, the self-cleavage was determined as 0.21.

With A5G U48C A56G U76G, the self-cleavage came out at 0.39.

For A5G U26C U60A U69C U80C, the self-cleavage worked out at 0.

With A5U A15G U54C U76C, the self-cleavage is 0.94.

For the variant A5G U25C A45G A57G U78C, the self-cleavage came to 0.04.

A5U A18U G30A U72C: the self-cleavage was determined as 0.09.

Regarding A5G U31C U72A, the self-cleavage came out at 0.36.

Turning to A5G U31C U72C, the self-cleavage came out at 0.37.

A5G U41C G63U: the self-cleavage stood at 0.37.

As to A5U A13G A56G C68A, the self-cleavage was determined as 0.17.

For the variant A5G U25C G33C, the self-cleavage was determined as 0.11.

In the case of A5U A18C A21G U31G, the self-cleavage is 0.41.

As to A5G U31A U51C A64G U67A U72C, the self-cleavage amounted to 0.06.

Regarding A5U A13U C23U C59U A75U, the self-cleavage came to 0.18.

A5U A13G A64U U69G: the self-cleavage is 0.27.

For A5U A15G A45G U54A U72C, the self-cleavage is 1.27.

For the variant A5U A13U G42U U51A U58A U78C, the self-cleavage amounted to 0.12.

Take A5G U26A U54C A57G: the self-cleavage came out at 0.31.

Regarding A5G U25C A35G A45C, the self-cleavage came out at 0.43.

Consider A5U A18G U54C, for which the self-cleavage came out at 0.6.

Take A5U A18G U58C G63A: the self-cleavage was found to be 0.26.

In the case of A5G U25C U69C U76C, the self-cleavage is 0.67.

On to A5U A18U U26C A35U A45C C68G, for which the self-cleavage stood at 0.14.

With A5U A13C A18G C23U, the self-cleavage is 0.53.

Regarding A5G U41A U67C, the self-cleavage amounted to 0.31.

Turning to A5U A20U U51A, the self-cleavage is 0.49.

Turning to A5G U67A U72C, the self-cleavage is 0.44.

Consider A5G U25C U54C U66A U74C, for which the self-cleavage was found to be 0.48.

Regarding A5G U31C G52U, the self-cleavage came out at 0.34.

In the case of A5G U41A A45C U66C, the self-cleavage was 0.2.
